Results reported in the RNAGym collection of RNA variant scans (doi:10.1093/nar/gkz1192).
Read counts are not given, so values of variants with three or more changes are uncertain.

B1: CPEB3 Ribozyme (parent)
chain: UAACAGGGGGCCACAGCAGAAGCGUUCACGUCGCAGCCCCUGUCAGAUUCUGGUGAAUCUGCGAAUUCUGCUGUAUAUCUC

Variants of: B1
Assay: self-cleavage, relative activity (ratio to wild type); higher = more cleavage; in vitro, sequencing
How it was run: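 Relative activity compares each variant's cleaved/total read fraction with that of the unmutated ribozyme. To get these fractions, barcoded CPEB3 ribozyme libraries from rounds of error-prone PCR were transcribed with T7 RNA polymerase for 5 hours at 37°C and then given 15 min of DNase I treatment before EDTA was added. The RNAs were reverse transcribed with template switching and sequenced on Illumina, and DNA sequencing linked barcodes to variants. A minimum of 5 reads applied, and three batches were averaged.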

| Variant | self-cleavage |
| --- | --- |
| C23U U25C A77G | 0.16 |
| C23U U25C C37U U60C | 0.32 |
| C23U U25C U31C C37U U43C | 0.09 |
| C23U U25C U48C | 0.32 |
| C23U U25C U49A | 0.23 |
| C23U U25C U78C | 0.12 |
| C23U U26A C32U U51A | 0.09 |
| C23U U26A C38U | 0.18 |
| C23U U26A U41A U67A | 0.1 |
| C23U U26C A35G | 0.27 |
| C23U U26C A45C U69A | 0.09 |
| C23U U26C A45G | 0.04 |
| C23U U26C A47G U69A U78C | 0.04 |
| C23U U26C G36C A47G U48C U72C | 0.06 |
| C23U U26C G46A | 0.15 |
| C23U U26C U60C | 0.14 |
| C23U U26C U72G | 0.07 |
| C23U U31A U69A | 0.37 |
| C23U U31C C40A A56U U66C U72A | 0.08 |
| C23U U41A A56U A65G | 0.09 |
| C23U U41A U74C A75U A77G | 0.29 |
| C23U U41C U72C | 0.37 |
| C23U U43A A77U | 0.47 |
| C23U U43A U76C | 0.49 |

| Variant | self-cleavage |
| --- | --- |
| C23U U43C C68A A77U | 0.05 |
| C23U U43C U58C | 0.09 |
| C23U U43C U60C U66C | 0.15 |
| C23U U43C U69C U72C U74C | 0.08 |
| C23U U43G A47G G61A U67C | 0.09 |
| C23U U48A U49A U54C U67A | 0.08 |
| C23U U48C A57G U67A | 0.07 |
| C23U U48C U49C U58A U76C | 0.07 |
| C23U U49A A65G | 0.25 |
| C23U U49A U58C A64G A75G | 0.04 |
| C23U U49C A57G U67C | 0.2 |
| C23U U49C U54A | 0.16 |
| C23U U49C U66C A75U | 0.08 |
| C23U U51A U80C | 0.36 |
| C23U U51C G55A U72A A75U | 0.06 |
| C23U U54A A65C | 0.19 |
| C23U U54C A75G | 0.19 |
| C23U U58C A64G | 0.36 |
| C23U U58C A75G | 0.08 |
| C23U U58C U60A C62A U76A | 0.15 |
| C23U U60C U66A | 0.1 |
| C23U U69C A75G | 0.08 |
| G24A A28C A45U C59U | 0.07 |
| G24A A28C U43C | 0.18 |

| Variant | self-cleavage |
| --- | --- |
| G24A A28G A45G U60C | 0.09 |
| G24A A28G A45G U69A | 0.12 |
| G24A A28G A64G U72C | 0.33 |
| G24A A28G G36U U60A | 0.08 |
| G24A A28G U41A U49C G73C | 0.06 |
| G24A A28G U41G A56G | 0.07 |
| G24A A28G U41G U49A U54C U78C | 0.07 |
| G24A A28G U43C U54G | 0.21 |
| G24A A28G U51A A65G | 0.36 |
| G24A A28G U51C | 0.13 |
| G24A A28G U58C A77G | 0.08 |
| G24A A28U A35U G46A U48C A57G U76A | 0.04 |
| G24A A35C A47G U66C | 0.27 |
| G24A A35G U60C U66C U74C C81G | 0.1 |
| G24A A45C U72C | 0.32 |
| G24A A45G U58G U69C | 0.16 |
| G24A A45U A64G A75G U78C | 0.08 |
| G24A A45U A75U | 0.21 |
| G24A A45U U49C | 0.22 |
| G24A A45U U58C G73A U80C | 0.11 |
| G24A A45U U67G | 0.18 |
| G24A A47G A65C U72A | 0.07 |
| G24A A47G U49C G53C U54C U66C | 0.18 |
| G24A A56G U60C U80A | 0.09 |

| Variant | self-cleavage |
| --- | --- |
| G24A A64G A77U | 0.19 |
| G24A A64G U72C | 0.11 |
| G24A A77U U80C | 0.33 |
| G24A C27A A45U A64G | 0.05 |
| G24A C29U A57G U60C U76C U78C | 0.13 |
| G24A C29U U49G U60C U67C | 0.05 |
| G24A C32G U48A G53A | 0.06 |
| G24A C32U A47G G63A U74C | 0.48 |
| G24A C34A U43A U60A U69A U78C | 0.08 |
| G24A C38A U66C U72C | 0.1 |
| G24A C59U U67C U74A | 0.08 |
| G24A C62U U67A U76C | 0.11 |
| G24A G42A A64U U72C | 0.08 |
| G24A G55A C79U | 0.3 |
| G24A G55A U67C | 0.11 |
| G24A G63A U76C | 0.34 |
| G24A U25A G42U | 0.37 |
| G24A U25C A28U A35U A65G | 0.14 |
| G24A U25C C27U U31C A56G U60C U74C | 0.06 |
| G24A U25C C34A U41A U69A | 0.07 |
| G24A U25C C38U A57G | 0.06 |
| G24A U25C C39A U43C U54A A64U U80A | 0.08 |
| G24A U25C G55A A56G | 0.04 |
| G24A U25C U31A A45G | 0.16 |

| Variant | self-cleavage |
| --- | --- |
| G24A U25C U49C | 0.09 |
| G24A U26A A65C | 0.19 |
| G24A U26A U43C | 0.06 |
| G24A U26C A75G | 0.08 |
| G24A U26C U41A A64G | 0.17 |
| G24A U31A A45G G61A A65G | 0.08 |
| G24A U31A A65G U72C U80G | 0.21 |
| G24A U31A C50G | 0.13 |
| G24A U31A U72A U76C | 0.07 |
| G24A U31C A64U | 0.14 |
| G24A U31C C37G U43A A77G U80C | 0.15 |
| G24A U31C C39U U41C G63A U69A | 0.06 |
| G24A U31C U43C U60C C68A U74C | 0.08 |
| G24A U31C U49C U58C | 0.08 |
| G24A U31G A77G | 0.48 |
| G24A U41A U43C U54A A65C C68A | 0.16 |
| G24A U41C U49C | 0.18 |
| G24A U43C U48C | 0.34 |
| G24A U43C U48C U66C U74A | 0.11 |
| G24A U48C U67C U78A | 0.34 |
| G24A U48C U78C | 0.11 |
| G24A U48G U51A A56G | 0.07 |
| G24A U49C A64G G73A | 0.07 |
| G24A U49C U58C | 0.09 |

| Variant | self-cleavage |
| --- | --- |
| G24A U51A U72A | 0.15 |
| G24A U51C U58C U72G | 0.14 |
| G24A U51C U72C | 0.17 |
| G24A U58G U60C | 0.07 |
| G24A U66C A75U | 0.62 |
| G24A U69A U76C | 0.07 |
| G24C A28G U49C A56U | 0.09 |
| G24C A45C U72C | 0.21 |
| G24C A45U U72G | 0.1 |
| G24C A56U U66C | 0.16 |
| G24C C29U U69A U72A | 0.15 |
| G24C G36U G53A U58G | 0.11 |
| G24C G36U U43C | 0.18 |
| G24C G42U U66C U74C U78A | 0.07 |
| G24C U25A A56G U69A U74C A75G | 0.16 |
| G24C U26A A56U G61A | 0.07 |
| G24C U26C G36A U48C G53C | 0.18 |
| G24C U31A A35U U51C | 0.08 |
| G24C U31C U41A A65G U80C | 0.22 |
| G24C U31C U41A U48C C59A | 0.06 |
| G24C U43A A56G U67A U80C | 0.07 |
| G24C U49A A56G | 0.24 |
| G24C U49C A77C | 0.08 |
| G24C U49C U78C | 0.16 |

| Variant | self-cleavage |
| --- | --- |
| G24C U58G A64U | 0.55 |
| G24U A35G G70A | 0.37 |
| G24U A35G U41A A45G G53A | 0.14 |
| G24U A45G A57G U69C | 0.06 |
| G24U A45G A75G | 0.39 |
| G24U A45G G53A U60C | 0.29 |
| G24U A45G G53A U72A | 0.05 |
| G24U A56U U69C | 0.22 |
| G24U A65U U80C | 0.13 |
| G24U C29A U31A U43C A57G A64G U78C | 0.04 |
| G24U C29U C37U U54A | 0.15 |
| G24U C50G A64G | 0.15 |
| G24U G30A U49C A56G U58A A65U | 0.06 |
| G24U U25A A45U A57G | 0.08 |
| G24U U25A U43C | 0.18 |
| G24U U25A U80C | 0.39 |
| G24U U25C A45U A65U | 0.14 |
| G24U U26C A35G | 0.25 |
| G24U U31C A64U U69C | 0.05 |
| G24U U31C A65G | 0.4 |
| G24U U41C U58C A65G | 0.12 |
| G24U U51C U69A U80C | 0.07 |
| G24U U54C U80A | 0.3 |
